# Read counts are not given, so values of variants with three or more changes are uncertain.
# B1: OR4K15 (parent)
# chain: GUUAACGGUCAUAGGCCAUGGAAACUAGGAGCACCAUUUCGCUGCCAGUGAAGAAAUGAACAAAGAAAAUCUGGGCCAGGCAGGCAUCAAAAGAAAUAGUCUUGCGCUCAACCAGAAAGUCUGUAAUCAUUUUAAGGGUA
# Variants of: B1
# Assay: self-cleavage, relative activity (ratio to wild type); higher = more cleavage; in vitro, sequencing; the parent is a self-cleaving ribozyme
row,Variant,self-cleavage
1,A33G A63G U103C A117G,0.55
2,A30G U57C A90U A91G,1.52
3,A47G A60G U120C,0.68
4,G7A U26A A47C A82G A118G,0.11
5,A4G U38C A82G,1.02
6,U26C U87C C109U U120C U122A,0.06
7,G41C U43A U97C,0.87
8,A4G A11U A78G,0.27
9,U2C A68U A90G A96G,1.58
10,A62U A116G A135U,0.78
11,A60G A91G A98G,0.25
12,A56G U97C A110U U131C,0.53
13,U57C A66U U100C,1.77
14,A24G U139C A140G,2.71
15,U19C G79A A117G,0.13
16,C35U U37C U97C U130C,0.51
17,C81A U87C A92U,0.24
18,A59G A63G A90G A111U U122A,0
19,A18G A52G U87C A116G,0.34
20,U57C U102A A134G,0.43
21,A30G A59G A117G,2.28
22,A51U U72C A111G,0.04
23,U37C A110U A111U,0.01
24,A86G U100A A134G,0.19

row,Variant,self-cleavage
1,A63G A68G U131C,1.41
2,A52G A111G A114U,0.04
3,U37C U39A A51U A62U,1.26
4,A68G A111G A118G,0.01
5,A11G U108C U127C,0.01
6,A23G A52G G74A U102A U132A A140U,0.09
7,U2C A24C A52G A55G U57A A95G,1.02
8,U2A U26C U39C U100C A135G,1.69
9,A59G U87C A92G U100C A114U,0.05
10,A18U A117G U133C,1.35
11,A33G A67G U122C A125G,0.38
12,A13G A23G A86G U108A U139A,0.14
13,A18G A56G A82G A140G,0.56
14,A5G G31C U57C A66G,0.78
15,U2C A51U A60G U108C A129G U133C,0
16,A55G A63G A82U,0.23
17,C16U U43C A68G A96G,1.93
18,A82G U100C A118G,1.15
19,A82G A92G A116G,0.21
20,A67C U100C U127C,1.76
21,A36G A59G U139C,1.14
22,A62G A110G A134G,0.13
23,U19C U38C A54U A56G,0.64
24,A11G U38C A91G,1.09

row,Variant,self-cleavage
1,U43C U57A A86G A117G,1.12
2,A27G A36U U87A A116U,0.61
3,A18G U37C A67G,1.66
4,A59G G74A U100C A140G,0.35
5,G15U A62G A78U U100A A110G,0.04
6,A30U A33G A47G,1.01
7,A33U A52G A125G,0.36
8,A13G A63G U127C,0.46
9,U19C A52G A89C,1.7
10,U9C A66G U72C A94C A118U,0.08
11,A82U A114G C121U U122C,0.01
12,A52G A68G U87C U97C A126G,0.38
13,A18G A23U A62U U139G,1.51
14,A11G A23U U38C A51G A52G U100C,0
15,A33U A54G A82U A126G,0.04
16,U87C A111G A118G U131C,0
17,G1A U2A U70C C105U,0.25
18,G7U U97G U127C,0.84
19,A4G A86G A116G,0.55
20,C40U A86G U87C,0.55
21,A56G A62U U70C,0.24
22,A5C U9A A30G A64G A116G,0.5
23,A64G A86G U87C,0.64
24,A4G A5G A18G A56G A64G A98G A114G,0.12

row,Variant,self-cleavage
1,A89U A90G A96G G106A G137U,0.02
2,A11G A22U U103C,0.97
3,G7A A30U U38C,1.43
4,A33G U43A A90G U100C U120C,0.89
5,A47G U49C A55G,1.49
6,A27U A59G A62C U70C A91G,0.24
7,A51G A94G A95G U130C,1.93
8,A47G A52G A60G,1.04
9,A52U A67G A94U,1.35
10,A22U U57C A118U,0.22
11,A5U A55C U57A A60C A78U,0.39
12,G14A A59G U120C,0.37
13,A13U A51U G93A A98U A111G,0.01
14,U2A A89G A129G,0.58
15,A33G A52G A60G A69U,1.13
16,U26C A69G A95G A110G,0.17
17,G53A A67G A94G,1.39
18,A18G A62C A66G U122G,2.48
19,A36U A52G A66G,1.49
20,U19C G48U A116U,0.42
21,A47U A51U A69C A78G A129G,0.08
22,A5G A90G U130C U132C,0.83
23,G20U A60G U72A A95U A114U A116G,0.25
24,U37C U103C U122G,1.46

row,Variant,self-cleavage
1,C46U A47U A90G U130C,0.6
2,U9C A27G A69G A94G U108C,0.03
3,A24G C105A U122C,0.02
4,A30G A68G U103C A114G U124C,0.05
5,U26C U124A U130C,0.94
6,A11C U87C U122C,0.92
7,A22C A23G A82U U100C U122C A140C,0.36
8,U26C A60G A92G A117G,1.3
9,A5G A30G G115U,0
10,A11U A95G A118G,0.72
11,A11G U70C A111U,0.09
12,A22G A92G U97C,1.35
13,U49C A64G U87C A118G,1.03
14,C6U A23G U38C A66G,0.93
15,A64G A66G C105U,0.05
16,A56G A64G A94G U122C U124C U131C,0.39
17,A52G A54U A68G U108G U120C,0.02
18,A23G U39C C85U,1.09
19,A62G A67G U139A,1.41
20,C128U U130C U131G,1.74
21,U57A A96G A118G U132C,0.36
22,U49C A54G A86G A92G U108C U122C,0
23,A55G U122C A129G U132C,0.55
24,G29A U43A A59C A69G U102C,1.79

row,Variant,self-cleavage
1,U2C A4G U12A A82G,1.24
2,A55G G75A A90G,0.04
3,A11G A18G A98U,1.01
4,A11G A22G A36G A66G A92G,1.67
5,U38C A92G C101A,0.18
6,C17U A24G U43C U97A,1.47
7,A18U U97C G104C,0.02
8,U37C U49C U87C A96G,1.69
9,U9G G84A A110G A129G,0.09
10,A23G A66G A117G,0.44
11,A30G U97C A110U A116G,0.05
12,U12C A18G A66G A68G A92G,1.17
13,A23G A52G U57C A68G A117G,1.2
14,A66G A68U A116G,1.15
15,C40U A98G U127A,1.19
16,C61U A66G A68G,1.3
17,A68G A86G A94G,1.32
18,C6U A51G U102G U103C U132C,0.36
19,G1A A91G U103C,1.43
20,U2A A52G U57C A60G A89G U103C A116G A117G A140G,0.07
21,A22C A30G A67U C128A,1.16
22,A5G U38C A52G A59G A129G,0.84
23,U3C C35U U38A A51U,0.93
24,U12A A30G A90U G106U A114G U122A,0.02

row,Variant,self-cleavage
1,U19A A23G A68G,0.39
2,A56G A64G A69G,1.62
3,A22G A60G U70A A129U,0.56
4,U19C U38C A47G A63G A95C U102C,1.33
5,A36U A54G U57A A59G U97C U122G,1.87
6,A5G A27G A36U A62U U132C,0.84
7,U2C A18G U70C U131A U132C,0.14
8,A51G A82G U120C,0.84
9,U39C A51U A55G G137U,1.46
10,C25U U49C A54G,0.79
11,U43C G106A A126U U132C,0.01
12,A27G A68G A111G,0.05
13,U9A A68G U120C A126G,0.57
14,A54G U108C A125G,0
15,U2G G7A U38C U108C,0.09
16,A30G U87C U97C,1.11
17,C25U A36G C105U,0.37
18,A91G U127A U139A,1.9
19,A23G U72G A118G,0.18
20,A24G U102C A118G,1.44
21,A18G A78G A90G,0.27
22,A11G U43C U97C A135G,1.1
23,A63U U108C A140G,0
